# The supplement of paper PMC3724861
# The list shows a part of the results.
# System: T1, Caupolican (Caup) homeodomain DNA-binding domain
# T1 sequence: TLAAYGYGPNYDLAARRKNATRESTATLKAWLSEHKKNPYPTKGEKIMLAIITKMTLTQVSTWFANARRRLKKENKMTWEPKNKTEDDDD
# Test: PBM E-score (8-mer, recovered from the published 9-mer minima) (E-score (dimensionless, -0.5 to 0.5)); Drosophila protein; higher = stronger relative binding preference, active = 0.31 or more
# Summary of the method: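 An enrichment score, with higher meaning stronger, expresses relative binding preference for each short DNA word. The protein used was Caup's homeodomain DNA-binding domain (residues 214-303), produced by in vitro transcription and translation and tested at 100 nM on custom-designed protein binding microarrays. The 8-mer values were recovered from published 9-mer scores, each equal to the lower of its two constituent 8-mer scores.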
row,Sequence,PBM E-score
1,ATAAGGAG,inactive: -0.0451
2,AGCTACGG,inactive: -0.068
3,TCGCGAGA,inactive: -0.106
4,GACGATGC,inactive: 0.0108
5,AATAACGG,inactive: -0.0242
6,CCACCCAA,inactive: -0.0435
7,GCAACACC,inactive: 0.0665
8,ATTTTTAA,inactive: 0.0998
9,CAAAGGAC,inactive: -0.0362
10,CGATGGTA,inactive: -0.00639
11,AGTCAAGC,inactive: -0.0991
12,ACGCGCCA,inactive: -0.111
13,TCGCTCAA,inactive: 0.0128
14,GGCGATAC,inactive: -0.00217
15,TCGCAAAA,inactive: 0.0116
16,AAGCATGA,inactive: 0.0838
17,CTTACCGA,inactive: -0.05
18,CCAGGGGA,inactive: -0.272
19,TCGCGACA,inactive: 0.153
20,TCGTTTAA,inactive: 0.1
21,AGAATTTA,≥ 0.126
22,CTGGGATA,inactive: -0.0847
23,AATGATGA,inactive: 0.172
24,ACGTATGC,inactive: 0.0521
25,TCTAATAA,inactive: 0.177

row,Sequence,PBM E-score
1,ATATATAG,inactive: 0.173
2,AGCCACCA,inactive: -0.126
3,AAGGGTGG,inactive: -0.132
4,ATTGAGGA,≥ 0.0037
5,GATCAACC,inactive: -0.0182
6,GTTCTTTA,inactive: 0.129
7,TAAGAACA,active: 0.313
8,ACACAGTG,inactive: 0.187
9,GGGGCACA,inactive: -0.1
10,GGCAAGAA,inactive: -0.0502
11,GAGCAGGA,inactive: 0.0596
12,GATACGCA,inactive: -0.0244
13,ACCCTGAA,inactive: 0.05
14,AGCAACGA,inactive: 0.0654
15,GTTCGCTA,inactive: 0.0799
16,ATTCATGC,inactive: 0.0406
17,ATAGGGAC,inactive: -0.0208
18,GCCTCGAA,inactive: -0.0979
19,TAGGCCTA,≥ -0.0475
20,AAAGCCTG,inactive: -0.131
21,GCGTTGCA,inactive: -0.0193
22,AGATAGTG,inactive: 0.0848
23,GCTACCAA,inactive: 0.0208
24,GCCGCGCC,inactive: -0.299
25,ACTGGAGG,inactive: -0.177

row,Sequence,PBM E-score
1,ATGTTCCA,inactive: 0.289
2,AGGCTTCA,inactive: -0.136
3,ACTCTGGA,inactive: 0.0189
4,CTGAATTC,inactive: 0.0344
5,CCTAGAAG,inactive: -0.176
6,AACCTCAC,inactive: -0.037
7,GCCAAGCC,inactive: -0.216
8,CCACCACG,inactive: -0.124
9,CCAGTCTC,inactive: -0.183
10,ACTGCGCT,inactive: -0.0333
11,TCGTACCA,inactive: 0.0924
12,AATGTGAA,inactive: 0.174
13,ACGGATTA,inactive: 0.101
14,ATATCATC,inactive: 0.145
15,CTAAACCA,inactive: -0.0274
16,CTATTACA,active: 0.346
17,AAGGGTCC,inactive: -0.33
18,GTGGACAA,inactive: 0.167
19,CGAGTGTC,inactive: -0.106
20,GAACCTCA,inactive: -0.0416
21,ACTGGTGG,inactive: -0.0801
22,GGGTCGGA,inactive: -0.217
23,GAAGTACA,inactive: 0.269
24,CACGCTAC,inactive: 0.00855
25,AAAGGAGC,inactive: -0.111

row,Sequence,PBM E-score
1,CCAGCTAC,inactive: -0.0516
2,CGATCGCC,inactive: -0.0688
3,AACGTCCC,inactive: -0.076
4,TAAGCCCA,inactive: -0.0537
5,AAGACTCC,inactive: -0.184
6,ACTAGCCA,inactive: 0.0322
7,CGGGTGTC,inactive: -0.00838
8,CAGCTTTA,inactive: -0.0203
9,GGTCCCGA,inactive: -0.138
10,CGCGCTAC,inactive: -0.0135
11,GCCGGATA,inactive: -0.0456
12,GGGTTTCA,inactive: 0.013
13,TGTCAACA,active: ≥ 0.324
14,AAACTTGG,inactive: -0.0323
15,ATAGCCTC,inactive: -0.0831
16,ACTCGGTG,inactive: -0.022
17,CCTACTGA,inactive: -0.0137
18,ACACGGAG,inactive: 0.131
19,CTCTTTCC,inactive: -0.21
20,CAGACAAC,inactive: 0.249
21,ATGTAACC,inactive: 0.275
22,GGTGCGGA,inactive: -0.0221
23,GCCTTACC,inactive: -0.135
24,AGTTCCGG,inactive: -0.065
25,AACTACAA,active: 0.342

row,Sequence,PBM E-score
1,AATGATGT,inactive: 0.249
2,TGAGTCCA,inactive: -0.0996
3,GAAGCCTC,inactive: -0.238
4,GCACCGTA,inactive: -0.0837
5,ATCCAGCG,inactive: -0.0713
6,AGGGTACT,inactive: 0.017
7,CTAGTATA,inactive: 0.179
8,ATTCGGAA,inactive: 0.0171
9,ACGAACCT,inactive: -0.0743
10,CGCACAAA,inactive: 0.0175
11,AGACTCAT,inactive: 0.0388
12,TAGACATA,inactive: 0.246
13,ACTCAGAG,inactive: -0.132
14,CGCGCTTC,inactive: -0.17
15,CGGCTCCC,inactive: -0.29
16,ATAAGCTG,≥ 0.0802
17,CACCTGAC,inactive: 0.0311
18,ATTCGGGG,inactive: -0.178
19,TCTCAAAA,inactive: 0.107
20,GCCAAGAA,inactive: -0.0865
21,CAAGTGGC,inactive: -0.0572
22,CGGAGCGA,inactive: -0.0735
23,AACCATAT,inactive: 0.0186
24,GGTTAGGA,inactive: -0.158
25,AACAGCTT,inactive: 0.0597

row,Sequence,PBM E-score
1,ATCGCGCC,inactive: -0.194
2,GGAGTAAA,≥ 0.089
3,CCTGCCAA,inactive: -0.0938
4,CTACTTGC,inactive: 0.0629
5,AGAGGACG,inactive: -0.0104
6,CTATACAC,inactive: 0.0914
7,TATCTCCA,≥ 0.00159
8,AAGTCCTA,inactive: -0.00473
9,ACCCCGAA,inactive: -0.106
10,AAACAGGG,inactive: 0.0426
11,ACGCTTGC,inactive: -0.0583
12,AAAGACGC,inactive: -0.151
13,ACGATACA,inactive: 0.241
14,GTGAACAA,inactive: 0.238
15,AATCTGTC,inactive: 0.114
16,ACTACCCC,inactive: -0.0237
17,AGTGCTAG,inactive: -0.0231
18,GAACGGCC,inactive: -0.169
19,ATCGGAGA,inactive: -0.0748
20,ATGCGTTC,inactive: -0.00798
21,AACTAGCT,≥ 0.124
22,CAGGATGA,inactive: -0.0168
23,AACGCTGA,inactive: -0.0784
24,TGTAAAAA,inactive: 0.293
25,CGCAGGAA,inactive: -0.134

row,Sequence,PBM E-score
1,TACTTAAA,inactive: -0.0138
2,CAGCGGCG,inactive: -0.118
3,CCTATCAA,inactive: 0.0398
4,CTCGATAC,inactive: 0.133
5,AAGTGTAT,inactive: 0.144
6,CCTAGAAA,inactive: -0.0952
7,AGCAAAAG,inactive: -0.0454
8,ACTTGACT,inactive: 0.102
9,CGCTCCTA,inactive: -0.0825
10,ATCGCGTC,inactive: 0.0197
11,CAATATGC,inactive: 0.0545
12,AGGTTTTA,inactive: -0.00666
13,AGTGCACG,inactive: 0.0451
14,CGATTGCC,inactive: -0.0353
15,CGCCGCAA,inactive: -0.126
16,ACCAGTTG,inactive: 0.116
17,AATCTTTA,inactive: 0.0372
18,CCCGGTAA,inactive: -0.059
19,ACTACTAA,inactive: 0.174
20,AACTCTAT,inactive: -0.0613
21,AAATTCGT,≥ 0.126
22,TCCCTGAA,inactive: -0.0336
23,CTAGTCTA,inactive: -0.0394
24,CGCCACGC,inactive: -0.254
25,CTATAGAG,inactive: -0.0434

row,Sequence,PBM E-score
1,CCTTGGTC,inactive: -0.0882
2,AAAAGCTC,inactive: -0.126
3,CGTGTAAA,active: 0.377
4,TAGCAAAA,inactive: 0.105
5,CTACCATA,inactive: 0.0534
6,CCTAGACC,inactive: -0.113
7,GTGACCAC,inactive: -0.0317
8,AACCAGGA,inactive: 0.0369
9,CTGTGACC,inactive: -0.113
10,GCGCCTAC,inactive: -0.0745
11,CCGCCGTA,inactive: -0.207
12,CCCCCCAA,inactive: -0.255
13,GAGGAACA,inactive: 0.155
14,CCCGTGGA,inactive: -0.104
15,ATTACTTG,inactive: 0.245
16,ATGCGCTG,inactive: -0.0119
17,CACCAAAC,inactive: 0.0517
18,ACACGCAT,inactive: 0.278
19,GATCCTTA,inactive: 0.0979
20,GAACTCTC,inactive: -0.0817
21,AATACGGT,inactive: 0.00013
22,GGGTGGGA,inactive: -0.0979
23,AGAAGGCG,inactive: -0.172
24,CTGGATCC,inactive: -0.125
25,ACTCCGAA,inactive: -0.0804

row,Sequence,PBM E-score
1,AAAAGGTA,inactive: 0.0466
2,ACTATTAG,inactive: 0.103
3,CATGTAAA,active: 0.421
4,TAGTCATA,inactive: 0.171
5,AATACCAT,≥ 0.265
6,GGAAGACA,inactive: 0.12
7,ATAAAGAA,inactive: 0.125
8,TAAGGGCA,≥ -0.0465
9,CAATCATA,inactive: 0.185
10,ACCAGGGC,inactive: -0.112
11,ATCGGTAG,inactive: 0.0388
12,ATTCAAGC,inactive: 0.05
13,ACTACGGA,inactive: 0.0378
14,AACACTGC,inactive: 0.0819
15,TCTGGTCA,inactive: 0.00845
16,CACTAGGC,inactive: -0.0461
17,AGGAGTGG,inactive: -0.118
18,CACCAAAA,inactive: -0.00895
19,CCAATGGC,inactive: -0.17
20,AGTCAGCC,inactive: -0.129
21,CCGAGTCA,inactive: -0.0177
22,TACCCGGA,≥ -0.0327
23,GATAAAAC,inactive: 0.112
24,CCAGCATC,inactive: -0.136
